The other results are listed elsewhere or left out. One pool of 16,384 single-stranded DNAs met each Rep nickase domain in vitro at 3 µM enzyme and 37 °C for 1 h; the strands have 90 letters, of which the middle is given. Values are log2 of uncut reads against the no-enzyme pool; uncut sequences lie near 0, cut ones below; no hit call is given. Reads are scaled to the total; where an enzyme cuts many sequences, the uncut ones exceed 0.
Tests used:
Test in all cases: uncleaved DNA left, log2 of reads against the no-enzyme library (log2 ratio); higher = less cleavage (more negative = more Rep cleavage of the k-mer); sequences stand for … in CTCGTCCG…ACCGGAGA
[1] = test system: T1, Rep nickase domain of Muscovy duck circovirus
T1 sequence (residues 1-111 of Rep, tag left off): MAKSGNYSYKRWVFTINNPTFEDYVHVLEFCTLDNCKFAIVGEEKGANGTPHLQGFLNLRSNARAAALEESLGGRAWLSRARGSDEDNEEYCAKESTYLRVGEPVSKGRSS
Procedure: (§1)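 A pool of 90-nt single-stranded DNAs with seven random bases just before the constant AC of the nick site (name = the seven bases) was cut by 3 µM recombinant His6-SUMO-tagged Rep nickase domain (300 nM DNA, 50 mM HEPES pH 8.0, 50 mM NaCl, 1 mM MnCl2, 1 h, 37 °C, three replicates). Uncut DNA was amplified and sequenced.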

[2] = test system: T2, Rep nickase domain of banana bunchy top virus
T2 sequence (residues 1-94 of Rep, tag left off): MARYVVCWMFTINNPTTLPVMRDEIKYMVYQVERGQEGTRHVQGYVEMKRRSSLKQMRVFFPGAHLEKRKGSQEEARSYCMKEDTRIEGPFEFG
Procedure: as §1

[3] = test system: T3, Rep nickase domain of cabbage leaf curl virus
T3 sequence (residues 1-116 of Rep, tag left off): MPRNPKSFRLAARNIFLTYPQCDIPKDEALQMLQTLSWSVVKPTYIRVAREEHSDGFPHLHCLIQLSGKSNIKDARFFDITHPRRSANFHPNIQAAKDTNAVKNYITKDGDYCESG
Procedure: as §1

[4] = test system: T4, Rep nickase domain of chickpea chlorotic dwarf virus
T4 sequence (residues 1-124 of Rep, tag left off): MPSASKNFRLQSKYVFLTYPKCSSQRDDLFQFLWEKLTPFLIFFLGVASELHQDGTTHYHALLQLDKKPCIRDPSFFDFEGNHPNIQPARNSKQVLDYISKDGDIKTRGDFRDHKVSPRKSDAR
Procedure: as §1

[5] = test system: T5, Rep nickase domain of faba bean necrotic yellows virus
T5 sequence (residues 1-98 of Rep, tag left off): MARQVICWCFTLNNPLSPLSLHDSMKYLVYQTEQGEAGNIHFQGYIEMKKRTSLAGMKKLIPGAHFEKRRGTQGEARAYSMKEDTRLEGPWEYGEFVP
Procedure: as §1

[6] = test system: T6, Rep nickase domain of maize striate mosaic virus
T6 sequence (residues 1-117 of Rep, tag left off): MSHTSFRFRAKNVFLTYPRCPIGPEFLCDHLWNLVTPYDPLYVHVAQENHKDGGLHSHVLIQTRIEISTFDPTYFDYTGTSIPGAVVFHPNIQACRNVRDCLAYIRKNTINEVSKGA
Procedure: as §1

[7] = test system: T7, Rep nickase domain of porcine circovirus 2
T7 sequence (residues 2-116 of Rep, tag left off): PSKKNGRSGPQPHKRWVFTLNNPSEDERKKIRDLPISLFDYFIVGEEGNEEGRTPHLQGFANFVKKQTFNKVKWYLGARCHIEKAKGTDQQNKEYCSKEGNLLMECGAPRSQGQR
Procedure: as §1

[8] = test system: T8, Rep nickase domain of tomato golden mosaic virus
T8 sequence (residues 1-124 of Rep, tag left off): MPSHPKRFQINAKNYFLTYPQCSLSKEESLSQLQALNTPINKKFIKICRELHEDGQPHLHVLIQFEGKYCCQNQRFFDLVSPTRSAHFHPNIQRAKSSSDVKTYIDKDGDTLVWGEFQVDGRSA
Procedure: as §1

[9] = test system: T9, Rep nickase domain of tomato yellow leaf curl virus
T9 sequence (residues 1-136 of Rep, tag left off): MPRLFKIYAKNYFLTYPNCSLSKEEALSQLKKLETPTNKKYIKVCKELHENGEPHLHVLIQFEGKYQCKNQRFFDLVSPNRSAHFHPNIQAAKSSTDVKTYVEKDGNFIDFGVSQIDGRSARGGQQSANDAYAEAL
Procedure: as §1

[10] = test system: T10, Rep nickase domain of wheat dwarf virus
T10 sequence (residues 1-137 of Rep, tag left off): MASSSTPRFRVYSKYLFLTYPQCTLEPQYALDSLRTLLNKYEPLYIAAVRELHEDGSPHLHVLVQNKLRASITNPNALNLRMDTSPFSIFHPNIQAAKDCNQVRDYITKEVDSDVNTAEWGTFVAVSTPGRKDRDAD
Procedure: as §1

Row | Sequence | uncleaved DNA left (log2) [1] | uncleaved DNA left (log2) [2] | uncleaved DNA left (log2) [3] | uncleaved DNA left (log2) [4] | uncleaved DNA left (log2) [5] | uncleaved DNA left (log2) [6] | uncleaved DNA left (log2) [7] | uncleaved DNA left (log2) [8] | uncleaved DNA left (log2) [9] | uncleaved DNA left (log2) [10]
1 | GTCGATT | 0.0435 | -0.022 | 0.337 | 0.4 | -0.0741 | 1.41 | -0.103 | -0.197 | 0.0233 | 0.0515
2 | AGTGAAC | 0.0187 | -0.0129 | 0.0535 | 0.579 | -0.0443 | 1.06 | 0.136 | 0.0425 | -0.102 | 0.1
3 | GGCTCTG | -0.0335 | 0.0666 | 0.11 | 0.713 | -0.0337 | 1.55 | 0.0275 | 0.0565 | 0.0656 | -0.0168
4 | ACTCTAG | -0.154 | -0.107 | -0.846 | -0.464 | -0.0975 | -1.03 | 0.141 | -0.0156 | -0.0497 | -0.0584
5 | GTTCTAT | 0.00935 | 0.111 | 0.339 | 0.884 | -0.0686 | 1.76 | 0.122 | 0.0219 | 0.1 | 0.0464
6 | CTGCGCA | -0.116 | -0.0673 | -0.591 | -0.524 | -0.0817 | -0.87 | -0.00169 | -0.162 | -0.122 | -0.136
7 | TACGTTG | 0.212 | -0.00714 | -0.161 | -0.548 | 0.193 | -0.498 | 0.206 | 0.0859 | 0.0379 | 0.0665
8 | CCGGGGG | -0.14 | -0.0809 | 0.294 | 0.709 | -0.0946 | 1.14 | 0.112 | -0.0187 | -0.103 | -0.177
9 | ACACGTA | -0.0414 | -0.0491 | -0.534 | -1.03 | 0.0455 | -0.948 | 0.0224 | -0.0785 | -0.219 | -0.2
10 | GATCTGA | -0.00051 | 0.0985 | 0.108 | 0.642 | 0.00324 | 1.26 | -0.0213 | 0.0147 | -0.0223 | -0.0509
11 | GCTTTGC | -0.157 | 0.0872 | -0.767 | -0.456 | 0.0974 | -1.03 | 0.211 | -0.0694 | 0.139 | -0.0373
12 | GAGCCGA | 0.171 | 0.221 | 0.136 | 0.152 | 0.0364 | -0.132 | 0.0599 | 0.085 | 0.169 | 0.164
13 | CGCAGCG | -0.00933 | 0.0139 | -0.732 | -0.648 | 0.00187 | -0.95 | 0.0788 | 0.0182 | 0.0397 | -0.0709
14 | TAGGCCA | 0.0613 | 0.0645 | 0.166 | -0.893 | -0.0145 | 0.515 | -0.359 | 0.0192 | 0.0835 | -0.00393
15 | GTTCGCA | -0.021 | 0.0338 | 0.28 | 0.716 | -0.0669 | 1.47 | 0.127 | 0.0386 | -0.0377 | 0.107

— the supplement of paper PMC7826260
